Data on 74 compounds can be found in the supplement of paper PMC3656093.

± gives the standard deviation of the averaged measurements. Over roughly 1,900 compounds, “CD40L-induced NF-kB luciferase activity, plate-corrected, relative to DMSO (0) and IKK inhibitor VII (-100) controls” has its median near 0.032; the lowest 2% begin near -26. Some of the results follow.

The subject of this assay is BL2-NFkB-Luc. The assay is described as follows: CD40L-induced NF-kB luciferase activity, plate-corrected, relative to DMSO (0) and IKK inhibitor VII (-100) controls (% normalized activity); higher = more NF-kB reporter activity (less inhibition). Conditions: 9.4 µM; stimulus: tCD40L 64 ng/ml; 4.5 h. The method, then:
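BL2 B cells with a stable NF-kB response-element luciferase reporter (BL2-NFkB-Luc), 384-well. Cells were pre-incubated with compound at 9.4 uM for 1 h at 37 C, then stimulated with 64 ng/ml trimerized CD40L for 4.5 h; luciferase was read with Steady-Glo. Signal was normalised per plate in Genedata (median DMSO neutral control = 0, median IKK inhibitor VII at 50 uM = -100) with Assay Median plate-pattern correction; duplicate plates.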
On to `CN1C(=O)C(O)(CC(=O)/C=C/C=C/c2ccccc2)c2ccccc21` (centres undefined), for which the “CD40L-induced NF-kB luciferase activity” value came out at 1.38 ± 2.4.
The value for `Cn1c(=O)c(C(=O)NCCO)c(O)c2ccccc21` was 11.6 ± 3.2.
For `O=C(/C=C/c1ccc2c(c1)OCO2)c1ccccn1` the value was 44.5 ± 13.
The value for `CC[n+]1ccc2cc(OC)c(OC)cc2c1Cc1ccc(OC)c(OC)c1` was -0.423 ± 1.5.
`CC1(C)C(C=C(Cl)Cl)C1C(=O)N1CCN(Cc2ccccc2)CC1` (centres undefined): the “CD40L-induced NF-kB luciferase activity” value was -1.62 ± 5.9.
Regarding `COc1cc(/C=C/C(=O)CC(=O)/C=C/c2ccc(O)c(OC)c2)ccc1O`, the “CD40L-induced NF-kB luciferase activity” value is 8.92 ± 1.7.
For `CCC(=O)c1ccc(OCc2ccc(C(=O)OC)cc2)cc1` the value was 47.3 ± 2.2.
For `CC(C)CN1CCN(Cc2cccn2-c2ccccn2)CC1CCO` (centres undefined) the value was -10.8 ± 8.3; for `COc1ccc2nc([S+]([O-])Cc3ncc(C)c(OC)c3C)[nH]c2c1` (centres undefined), 5.73 ± 8.1.
For `CCOC(=O)N1c2ccccc2C=CC1OCC` (centres undefined) the value was 1.55 ± 3.5; for `COc1cccc(OCC(O)CO)c1` (centres undefined), 4.15 ± 11.
In the case of `COc1ccc2cc(C(=O)OC(C)C)sc(=O)c2c1OC`, the “CD40L-induced NF-kB luciferase activity” value worked out at 12.3 ± 3.2.
Turning to `CN(C)CCCN1c2ccccc2CCc2ccccc21`, the “CD40L-induced NF-kB luciferase activity” value was 0.214 ± 1.2.
The value for `NC(CO)C(=O)NNCc1ccc(O)c(O)c1O` (centres undefined) was 0.201 ± 2.6; that for `Cc1cnc(NC(=O)C2C(=O)c3ccccc3S(=O)(=O)N2C)s1` (centres undefined) was -2.78 ± 4.5.
Consider `CN1CCC(OC(c2ccccc2)c2ccccc2)CC1`, for which the “CD40L-induced NF-kB luciferase activity” value was 0.501 ± 5.3.
Turning to `Cc1cc(O)c(C(=O)Cc2csc(C)n2)c(O)c1`, the “CD40L-induced NF-kB luciferase activity” value was 45.9 ± 3.3.
The value for `CC12CN3CC(C)(CN(C1)C3c1ccc(Cl)cc1Cl)C2=O` (centres undefined) was -2.73 ± 6.4; that for `CCOc1ncnc2c1[nH]c1ccccc12` was 10.18 ± 0.021.
With `Cc1cccc(Nc2ccccc2C(=O)O)c1C`, the “CD40L-induced NF-kB luciferase activity” value is -0.533 ± 0.74.
On to `CCC(C)n1ncn(-c2ccc(N3CCN(c4ccc(OCC5COC(Cn6cncn6)(c6ccc(Cl)cc6Cl)O5)cc4)CC3)cc2)c1=O` (centres undefined), for which the “CD40L-induced NF-kB luciferase activity” value came out at 3.03 ± 0.81.
As for `COc1ccc(CN2CCCCC2C(=O)Nc2ccc(OC)c(OCC(C)C)c2)cc1OC` (centres undefined), the “CD40L-induced NF-kB luciferase activity” value worked out at 2.17 ± 3.2.
As for `CNCCCN1c2ccccc2CCc2ccccc21`, the “CD40L-induced NF-kB luciferase activity” value came out at 6.37 ± 0.25.
For `O=C1CC(c2ccc(F)cc2)Cc2nc(NCC3CCCO3)ncc21` (centres undefined) the value was 3.56 ± 5.9; for `COc1cc(OC)c(-c2nc3cnccc3n2C)cc1OC`, -0.832 ± 2.7.
The value for `CCCCCCCC(=O)OCC(=O)[C@@]1(O)CC[C@H]2[C@@H]3CCC4=CC(=O)CC[C@]4(C)[C@H]3[C@@H](O)C[C@@]21C` was -24.2 ± 1.8; that for `Cc1cc(=O)c2c(O)c(O)ccc2o1` was -3.74 ± 1.1; that for `CC1(C)S[C@@H]2[C@H](NC(=O)Cc3ccccc3)C(=O)N2[C@H]1C(=O)O` was 1.76 ± 1.8.
For `CN(C)[C@@H]1C(=O)C(C(N)=O)C(=O)[C@@]2(O)C(=O)C3C(=O)c4c(O)ccc(Cl)c4[C@@H](O)[C@H]3C[C@@H]12` (some centres undefined) the value was -0.533 ± 1.3; for `CCCCC/C=C\C[C@H](O)/C=C/c1cccc(C[C@H](O)CCCCO)n1`, 1.35 ± 5.5; for `COc1ccccc1OCC(=O)O`, 5.79 ± 3.1.
For the compound `Cc1ccc2c(c1)C(O)(CC(=O)/C=C/C=C/c1ccccc1)C(=O)N2` (centres undefined), the “CD40L-induced NF-kB luciferase activity” value is 2.22 ± 2.3.
The value for `Cn1c(=O)c2c(ncn2CCO)n(C)c1=O` was -3.63 ± 5.5.
As for `COc1ccc(-n2cc(CNCc3cccnc3)c(-c3cccc(F)c3)n2)cc1`, the “CD40L-induced NF-kB luciferase activity” value was -4.77 ± 3.8.
As to `NC(N)=NN=Cc1ccc(OS(=O)(=O)c2ccccc2)cc1`, the “CD40L-induced NF-kB luciferase activity” value is -3.15 ± 6.
As for `Cn1c(=O)[nH]c(=O)c2c1nc(NCc1ccco1)n2CCCc1ccccc1`, the “CD40L-induced NF-kB luciferase activity” value is -14.4 ± 3.9.
For `CC1(C)CC(=O)c2cnc(NC(=O)C3CCCC3)nc2C1` the value was 10.5 ± 8.1; for `COc1ccc2c(c1)[nH]c1c(=O)n(Cc3ccccn3)cnc12`, -0.0285 ± 6.5.
For `COc1cccc(CN2C(=O)N(C(C)C)C(N(O)C(=O)NC(C)C)C2(C)C)c1OC` (centres undefined) the value was 0.34 ± 1.2; for `Cc1c(NC(=O)c2cccs2)cccc1[N+](=O)[O-]`, 3.34 ± 2.9; for `C#CCN(C)CCCOc1ccc(Cl)cc1Cl`, 18.6 ± 10.
The value for `COc1ccc(C2C3=C(CC(C)(C)CC3=O)N(C)C3=C2C(=O)CC(C)(C)C3)cc1` was -1.84 ± 3.1.
With `CC1(C)C2CCC1(C(=O)O)c1nc3ccccc3nc12` (centres undefined), the “CD40L-induced NF-kB luciferase activity” value is -6.56 ± 6.1.
The value for `Cc1cnc(C(=O)NCCc2ccc(S(=O)(=O)NC(=O)NC3CCCCC3)cc2)cn1` was -11.9 ± 14; that for `CCc1cc2c(=O)c(-c3nc(C)cs3)c(CCCC(=O)O)oc2cc1O` was 4.01 ± 2.6; that for `CC(OC(=O)c1cc(=O)[nH]c2ccccc12)C(=O)c1ccccc1` (centres undefined) was 2.72 ± 3.4.
Take `O=C(/C=C/c1ccccc1)/C=C/c1ccccc1`: the “CD40L-induced NF-kB luciferase activity” value amounted to 14 ± 3.4.
For `Cc1ccccc1C(=O)Nc1ccccc1C(=O)NCC(C)C` the value was -13.8 ± 7.1; for `CCCCNc1ccc(C(=O)OCCN(C)C)cc1`, 2.74 ± 6.3; for `COc1ccc2[nH]c(=O)c(CN(C(=O)c3ccco3)C(C)C)cc2c1`, 0.241 ± 0.71.
As to `COc1ccccc1C(CCN(Cc1ccccc1)C(C)=O)c1ccco1` (centres undefined), the “CD40L-induced NF-kB luciferase activity” value stood at 0.884 ± 3.6.
For `O=C(CCSc1ccccc1)N1CCCC1` the value was -1.91 ± 3.9.
The value for `CCSC(SCC)[C@H](O)[C@@H](O)[C@H](O)[C@H](O)CO` was 1.44 ± 1.4; that for `Cc1ccc(NCCC(=O)c2ccccc2)cc1Cl` was 0.848 ± 1.2; that for `Cc1ccccc1C(OCCN(C)C)c1ccccc1` (centres undefined) was 1.17 ± 2.3.
`COc1cc(/C=C(\C#N)C(=O)N2CCc3ccccc32)ccc1O`: the “CD40L-induced NF-kB luciferase activity” value was -3.46 ± 17.
`NCCCC(N)(C(=O)O)C(F)F` (centres undefined): the “CD40L-induced NF-kB luciferase activity” value was -0.116 ± 2.1.
For `CSc1ccc(C=NN2CCN(Cc3ccc(C)cc3C)CC2)cc1` the value was -1.75 ± 1.9; for `COc1c2ccoc2nc2c(OC)cccc12`, 35 ± 3.3; for `CNc1c2c(nn1C)CCCC2`, 4.52 ± 6.
For `CC(C)CN1CC(C(=O)O)CC1=O` (centres undefined) the value was 0.831 ± 1.9; for `COc1ccc(-c2nnc(-c3cc4c(ccc5ccccc54)oc3=O)o2)cc1`, -0.84 ± 2.2; for `COC(=O)C1=C(C)NC(C)=C(C(=O)OCCN(C)Cc2ccccc2)C1c1cccc([N+](=O)[O-])c1` (centres undefined), 0.32 ± 4.7.
The value for `CC(=O)SC1CC2=CC(=O)CCC2(C)C2CCC3(C)C(CCC34CCC(=O)O4)C12` (centres undefined) was -3.8 ± 4; that for `c1ccc(Nc2cccc3c(Nc4ccccc4)cccc23)cc1` was 6.91 ± 1.2; that for `CC(C)NC(=O)c1ccc(C(C)C)cc1` was -3.79 ± 5.4.
On to `CCc1oc2ccccc2c1C(=O)c1cc(Br)c(O)c(Br)c1`, for which the “CD40L-induced NF-kB luciferase activity” value is 1.29 ± 0.75.
The value for `COc1ccc(Cc2nc(-c3ccc(Br)cc3)no2)cc1` was 30.1 ± 0.52.
For `CC(C)(C)NCC(O)c1cc(O)cc(O)c1` (centres undefined), the “CD40L-induced NF-kB luciferase activity” value is -3.87 ± 3.1.
The value for `C#C[C@]1(O)CC[C@H]2[C@@H]3CCC4=C(CCC(=O)C4)[C@H]3CC[C@@]21C` was -9.83 ± 0.4.
As for `C=C(C)C(=O)Nc1ccc(NC(C)C)cc1`, the “CD40L-induced NF-kB luciferase activity” value was 5.24 ± 6.5.
For `O=C1[C@@H]2CSCN2C(=O)CN1Cc1ccc(F)cc1`, the “CD40L-induced NF-kB luciferase activity” value is -0.473 ± 5.9.
The value for `COc1cc(C(=O)Nc2ccc(N(C)C)cc2)c([N+](=O)[O-])cc1OC` was 1.16 ± 2; that for `COc1ccc(-c2nc(NC(C)=O)sc2-c2ccc(OC)cc2)cc1` was -0.95 ± 2.8.
